The whole screen tested about 310,000 compounds, of which about 14,000 (4.5%) showed an effect of 50% or more. The effect is printed as a negative number. The list shows a part of the results.
These compounds were tested against human ether-à-go-go-related gene (hERG) potassium channel (human, UniProt Q12809) (assay: primary screen, population patch clamp on CHO cells stably expressing hERG).
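Also: peak tail current of the secondary pulse compared with the same well before compound.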

Sequence of human ether-à-go-go-related gene (hERG) potassium channel (Q12809 whole entry, looked up): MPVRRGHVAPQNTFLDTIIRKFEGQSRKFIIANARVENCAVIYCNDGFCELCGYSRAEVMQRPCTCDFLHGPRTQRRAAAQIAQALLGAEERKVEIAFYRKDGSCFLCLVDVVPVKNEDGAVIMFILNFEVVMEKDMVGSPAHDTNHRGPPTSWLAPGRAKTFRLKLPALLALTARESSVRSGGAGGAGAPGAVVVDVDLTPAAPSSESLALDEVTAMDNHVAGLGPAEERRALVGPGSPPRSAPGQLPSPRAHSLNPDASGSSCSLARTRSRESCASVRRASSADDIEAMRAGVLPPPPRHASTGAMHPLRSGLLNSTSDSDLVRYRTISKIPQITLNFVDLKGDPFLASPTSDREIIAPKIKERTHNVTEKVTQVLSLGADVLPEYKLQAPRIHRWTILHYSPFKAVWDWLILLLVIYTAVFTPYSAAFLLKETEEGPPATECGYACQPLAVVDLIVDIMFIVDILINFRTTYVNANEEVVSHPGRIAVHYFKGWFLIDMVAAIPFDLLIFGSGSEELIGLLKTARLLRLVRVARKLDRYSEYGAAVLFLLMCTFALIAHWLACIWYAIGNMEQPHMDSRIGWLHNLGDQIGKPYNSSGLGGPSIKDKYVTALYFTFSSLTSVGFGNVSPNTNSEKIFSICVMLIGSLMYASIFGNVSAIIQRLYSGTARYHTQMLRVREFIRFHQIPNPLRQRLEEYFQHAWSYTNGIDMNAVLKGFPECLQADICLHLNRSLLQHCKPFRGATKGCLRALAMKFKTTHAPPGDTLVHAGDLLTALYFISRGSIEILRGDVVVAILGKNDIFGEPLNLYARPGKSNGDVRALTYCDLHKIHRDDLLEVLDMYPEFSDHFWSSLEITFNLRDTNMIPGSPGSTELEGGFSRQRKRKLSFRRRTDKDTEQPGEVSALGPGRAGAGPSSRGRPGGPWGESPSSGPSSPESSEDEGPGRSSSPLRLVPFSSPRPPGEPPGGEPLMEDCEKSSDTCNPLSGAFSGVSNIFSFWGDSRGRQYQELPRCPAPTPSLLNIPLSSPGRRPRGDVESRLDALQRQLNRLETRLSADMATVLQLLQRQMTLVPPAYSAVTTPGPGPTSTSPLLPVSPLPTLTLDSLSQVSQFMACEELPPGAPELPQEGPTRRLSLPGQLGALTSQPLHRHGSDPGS

Structure (SMILES)	hERG current change (%, negative = inhibition) at 10uM [%]
NC(=O)C1CCN(C(=O)NC2CC(=O)N(c3ccc4c(c3)OCCO4)C2)CC1 (stereo not drawn)	-3.63
Cc1c(NC(=O)Cn2ccc([N+](=O)[O-])n2)c(=O)n(-c2ccccc2)n1C	24.2
CCOc1ccc(C2=NNC(c3cccnc3)=Nc3ccc(OC)cc32)cc1	3.01
CC(=O)O.NC(N)=N/N=C/c1c(Cl)cccc1Cl	-28.5
CCN(CC)C(=O)Cn1cc(C(=O)C(=O)NCc2ccco2)c2ccccc21	-11.3
Cl.OCCN1CCN(CC(O)COc2ccc3ccccc3c2)CC1 (stereo not drawn)	0.598
CCOc1ccc(-c2nc(CCl)cs2)cc1.Cl	7.6
NS(=O)(=O)c1ccc(NC(=O)CN2CCCc3ccccc32)cc1	-5.73
COC(=O)c1cccc(NC(=O)CC2C(=O)NCCN2C(=O)c2ccc(F)cc2F)c1 (stereo not drawn)	11.4
Cc1ccc(S(=O)(=O)N2CC=C(C(=O)NCc3ccc(F)cc3)CC2)cc1	-43.4
FC(F)(F)Oc1ccc(NC(=S)Nc2ccccc2N2CCOCC2)cc1	-10.7
[O-]/C(=C(\C(=S)Nc1ccccc1F)[n+]1ccccc1)c1ccc(-c2ccccc2)cc1	10.6
COC(CNC(=O)CSCc1nc(-c2ccc(SC)cc2)oc1C)OC	1.22
CCOc1ccccc1/C=N/N1CCN(Cc2ccccc2)CC1.Cl	16.4
CCOc1cc(N2CCOCC2)c(OCC)cc1NC(=O)CN1C(=O)N(C)C2(CCCCC2)C1=O	-23.5
O=C(COc1ccccc1)Nc1c(Cl)ccc2nsnc12	11.9
COc1ccc(C(=O)NCCC2=CCCCC2)cc1S(=O)(=O)N1CCOCC1	-40.4
COc1ccc(NC(=O)CSc2n[nH]c(=O)n2Cc2ccccc2)cc1Cl	-10.4
O=C(c1ccc(C(=O)N2CCOCC2)s1)N1CCOCC1	1.17

Structure (SMILES)	hERG current change (%, negative = inhibition) at 10uM [%]
CCOC(=O)c1ccc(NC(=O)C(CC)CC)cc1	-6.13
Cc1ccc(/C=N/n2c(C)n[nH]c2=S)o1	7.03
Cc1ccc(-n2ncc(-c3nn[nH]n3)c2N)cc1	24.6
C/C(=N\NC(=O)CNC(=O)c1ccco1)c1ccc(Br)cc1	11.9
COc1cc(SC)ccc1C(=O)OCC(=O)N1CCCC1	3.69
COc1ccc(NC(=O)[C@@H](NC(=O)c2ccccc2F)C(C)C)cc1S(=O)(=O)N1CCOCC1	-37.1
Cc1cc(C)cc(NC(=O)Nc2cnccn2)c1	12
OCC[C@H]1C[C@@H](O)[C@H](O)[C@@]2(OCc3ccccc32)O1	7.27
CCOC(=O)N1CCN(S(=O)(=O)N2CCCC(C(=O)NCc3ccc(OC)cc3)C2)CC1 (stereo not drawn)	1.39
O=S(=O)(NCc1ccccc1Cl)c1ccc(-n2cccn2)cc1	14.2
O=C(Cc1cccc2ccccc12)Nc1ccc2oc(-c3ccccc3)nc2c1	7.35
CCC1CCCCN1C(=O)CCc1nnc(C2CCCCC2)o1 (stereo not drawn)	-55
O=C(Cc1ccc(S(=O)(=O)N2CCOCC2)s1)NCC1CCCCC1	-9.9
CCc1cc(C(=O)N2CCCC(C(=O)c3cccc(OC(C)C)c3)C2)n(C)n1 (stereo not drawn)	-6.49
Cc1ccc(CCSCC(=O)O)cn1	18.9
Cc1c(CCOC(=O)C23CC4(C)CC(C)(CC(C)(C4)C2)C3)sc[n+]1CC(=O)c1ccccc1.[Br-]	-19.5
CN1CCN(C(=S)NC(=O)c2ccccc2Br)CC1	11.2
COc1cccc(/C=N/Nc2nc3ccccc3[nH]2)c1OC	16.6
CC(=O)c1ccc(N2CCN(CC(=O)NC(=O)NCc3ccccc3)CC2)cc1	3.62

Structure (SMILES)	hERG current change (%, negative = inhibition) at 10uM [%]
CCn1c(Cn2nnc(-c3ccccc3)n2)nnc1SCC(=O)Nc1cccc(C)c1C	-29.8
N#C/C(=C/c1ccc(N2CCOCC2)c([N+](=O)[O-])c1)C(N)=O	-39.8
Cc1ccc(C)c(NC(=O)c2nc(Cl)ccc2Cl)c1	15
O=C(NC1CCCCC1NC(=O)c1ccco1)c1ccco1 (stereo not drawn)	13
CC(NC(=O)CCc1nnc(Cc2cccc(C(F)(F)F)c2)o1)C1CC1 (stereo not drawn)	6.51
CC(=O)c1cccc(S(=O)(=O)N2CCCC(c3nc(-c4ccc(C)o4)no3)C2)c1 (stereo not drawn)	-33.3
CCC(=O)Nc1cc2nn(-c3ccccc3)nc2cc1Cl	5.35
O=C(NCc1ccc(F)cc1)C1CCCN(S(=O)(=O)c2cccnc2)C1 (stereo not drawn)	-12.1
Cc1csc(=O)n1CC(=O)OCC(=O)NCc1ccc(F)cc1	6.31
CCCC(C)C(=O)NCc1ccc2c(c1)OCO2 (stereo not drawn)	13.8
C=CCn1c(O)c(C(C)=NCCc2c[nH]c3ccccc23)c(=O)[nH]c1=O	-31.9
Cc1oc2c(cc(NS(=O)(=O)c3ccc(Cl)cc3)c3ccccc32)c1C(=O)O	9.18
O=C(CCN1C(=O)C2C3C=CC(C3)C2C1=O)N1CCN(c2ccccc2Cl)CC1 (stereo not drawn)	-57.2
CCN(CC)CCC(=O)N1c2ccccc2Sc2ccc(NC(=O)OC)cc21	-34.8
COc1ccc(-c2csc3ncnc(N4CCN(S(=O)(=O)c5ccccc5C#N)CC4)c23)cc1	7.42
O=C(C[n+]1cc(Br)cc(Br)c1)c1cccc([N+](=O)[O-])c1.[Cl-]	-8.4
COC(=O)Cn1c(=NC(=O)c2cccc(OC)c2)sc2cc(OC)ccc21	-1.13
COc1ccc(/C=N/S(=O)(=O)c2cccs2)cc1	5.1
Cc1ccc(C2=N/C(=C\c3cccs3)C(=O)N2Nc2ccccc2)cc1	11.7

— publication PMC4336329 (PLoS ONE, 2015)
